Experimental data reported in PubChem BioAssay AID1347165 (National Center for Advancing Translational Sciences (NCATS), 2019).
Where “and” joins values, the source holds several entries; their conditions need not be identical. Identical values can stand only once. Screen size: about 220,000 compounds; about 5,700 (2.6%) were called active. The shares of active, inactive and inconclusive entries below differ from those in the screen. The call rests on the fitted dose curve; in most records, active means well fitted inhibition curve with a large enough effect; inconclusive means small, poorly fitted or top-dose-only effect; inactive means no such curve, though single readings can be large or run the other way. Potencies beside an inconclusive call are fits to weak or partial responses and may not hold up.

molecular target: Lysine-specific demethylase 5B (Homo sapiens) (UniProt Q9UGL1); test: Primary screen for KDM5B Histone Demethylases FDH-coupled qHTS; settings: FDH-coupled NADH fluorescence (FDH is formaldehyde dehydrogenase); activity change, negative = inhibition: at 57.7 µM (top of the series) unless noted; further: nearly all actives have a fitted effect of over 70% in size; on activity change, negative = inhibition: 0% is about no effect
UniProt Q9UGL1, sequence (Q9UGL1 whole entry, looked up): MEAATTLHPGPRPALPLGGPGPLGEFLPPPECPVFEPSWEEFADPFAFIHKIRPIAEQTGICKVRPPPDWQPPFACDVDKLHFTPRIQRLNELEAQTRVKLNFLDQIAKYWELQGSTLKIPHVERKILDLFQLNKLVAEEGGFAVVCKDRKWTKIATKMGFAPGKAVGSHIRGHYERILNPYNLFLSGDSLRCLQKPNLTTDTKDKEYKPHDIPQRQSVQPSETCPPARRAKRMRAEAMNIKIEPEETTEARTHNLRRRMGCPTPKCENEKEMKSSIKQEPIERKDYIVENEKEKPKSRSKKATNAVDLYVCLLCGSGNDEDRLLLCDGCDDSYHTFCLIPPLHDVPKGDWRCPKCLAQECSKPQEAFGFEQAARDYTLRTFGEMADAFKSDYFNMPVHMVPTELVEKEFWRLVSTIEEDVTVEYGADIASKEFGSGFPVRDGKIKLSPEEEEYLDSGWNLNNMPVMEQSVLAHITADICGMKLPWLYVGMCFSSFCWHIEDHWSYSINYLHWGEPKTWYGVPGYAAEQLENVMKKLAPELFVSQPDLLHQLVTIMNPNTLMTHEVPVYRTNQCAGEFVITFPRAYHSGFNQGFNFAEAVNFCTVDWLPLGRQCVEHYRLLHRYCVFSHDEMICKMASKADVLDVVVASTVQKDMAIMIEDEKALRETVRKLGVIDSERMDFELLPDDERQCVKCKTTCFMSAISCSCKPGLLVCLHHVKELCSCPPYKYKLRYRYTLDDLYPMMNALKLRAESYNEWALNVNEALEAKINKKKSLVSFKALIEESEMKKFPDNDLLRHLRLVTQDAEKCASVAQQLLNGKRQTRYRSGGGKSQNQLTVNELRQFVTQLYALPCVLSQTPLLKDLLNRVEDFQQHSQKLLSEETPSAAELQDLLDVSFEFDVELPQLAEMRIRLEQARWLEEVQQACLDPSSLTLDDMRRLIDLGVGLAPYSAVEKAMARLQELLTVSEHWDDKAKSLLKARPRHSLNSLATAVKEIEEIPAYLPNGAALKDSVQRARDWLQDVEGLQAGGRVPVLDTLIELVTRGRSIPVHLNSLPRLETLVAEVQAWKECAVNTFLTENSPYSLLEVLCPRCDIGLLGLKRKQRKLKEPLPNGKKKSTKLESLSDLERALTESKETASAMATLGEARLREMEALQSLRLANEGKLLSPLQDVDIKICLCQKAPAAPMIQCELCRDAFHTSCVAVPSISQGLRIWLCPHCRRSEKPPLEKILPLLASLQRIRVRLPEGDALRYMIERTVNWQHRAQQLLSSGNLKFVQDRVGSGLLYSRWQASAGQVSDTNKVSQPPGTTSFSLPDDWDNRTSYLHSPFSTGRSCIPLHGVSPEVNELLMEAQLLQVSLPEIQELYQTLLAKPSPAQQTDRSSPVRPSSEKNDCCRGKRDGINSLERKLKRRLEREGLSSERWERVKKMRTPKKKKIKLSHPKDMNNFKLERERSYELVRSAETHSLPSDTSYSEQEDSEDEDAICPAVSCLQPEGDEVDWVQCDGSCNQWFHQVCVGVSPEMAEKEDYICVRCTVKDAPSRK
Summary of the method: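 Measured: NADH fluorescence change, 30 min, RT. System: KDM5BΔAP 200 nM final, H3K4me3 peptide, α-KG, Fe(II), ascorbate, NAD⁺ plus FDH, pH 7.5 HEPES. Compounds: titrated, 10 min pre-incubation with enzyme.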
Potency means the concentration at half of the fitted maximal effect; tags describe the fitted curve by direction and shape.

| SMILES | activity change, negative = inhibition | Potency |
| --- | --- | --- |
| Cc1ccc(C(=O)/C=C/c2sccc2C)cc1 | inactive: -14.5% |  |
| COc1cccc2c1Oc1c(c(=O)n(-c3ccccc3)n1CC(=O)Nc1ccc(F)c(Cl)c1)C2 | inactive: -4.76% |  |
| CC(C)(C)C(=N)N | inactive: 28.2% |  |
| O=C1NCCN2CC3(CCN(S(=O)(=O)c4cccs4)CC3)CC12 (centres undefined) |  | inconclusive: 15.8 µM [inhibitor, single point] |
| COc1ccc(-c2ccc3onc(C)c3n2)cc1OC |  | inconclusive: 35.5 µM [inhibitor, partial curve, poor fit] |
| COc1ccc(OC)c(CCNC(=O)c2ccc3c(c2)N(Cc2ccccc2)CCS3)c1 |  | inconclusive: 31.6 µM [inhibitor, partial curve, poor fit] |
| CC(Cl)C(=O)NC(=O)NCc1ccccc1 (centres undefined) | inactive: 17.7% |  |
| Cc1cc(CNC(=O)c2cc(-c3ccco3)nc3c(Cl)cccc23)no1 |  | active: 28.2 µM |
| CC(Sc1nnc(C2CC2)n1C)C(=O)Nc1ccnn1C(C)C (centres undefined) | inactive: -28.1% |  |
| O=S(=O)(NCC1(COc2cnccn2)C[C@@H](O)[C@@H](O)C1)c1ccc(Cl)cc1 (some centres undefined) |  | inconclusive: 28.2 µM [inhibitor, partial curve, poor fit] |
| Cc1nc(CN2C[C@H](C(=O)Nc3ccccc3)C[C@@H]2c2ccc(F)cc2)cs1 |  | active: 35.5 µM |
| CCOC(=O)C1CCN(C(=O)Cn2nc(C)n3c(cc4c(OC)cccc43)c2=O)CC1 |  | inconclusive: 6.31 µM [inhibitor, partial curve, poor fit] |
| CNC(=O)N1CCC(C2CCN(C(=O)c3ccc(Cl)s3)C2)CC1 (centres undefined) | inactive: 19.7% |  |
| COc1cccc(C(c2sc3nc(-c4ccco4)nn3c2O)N2CCC(C)CC2)c1 (centres undefined) |  | inconclusive: 17.8 µM [inhibitor, partial curve, poor fit] |
| CN(C)S(=O)(=O)c1cc(NC(=O)c2nn(Cc3ccccc3)c(=O)c3ccccc23)ccc1Cl | inactive: 16.7% |  |
| CN(C)C(=O)c1cc(-c2ccc(Cl)nc2)nc2c1cnn2C |  | inconclusive: 70.8 µM [inhibitor, partial curve, poor fit] |
| OCCC1CN(c2cc(C(F)(F)F)ccn2)CCN1CC1CCCCC1 (centres undefined) |  | active: 22.4 µM |
| Cc1cccc(Oc2coc3cc(O)ccc3c2=O)c1 |  | inconclusive: 25.1 µM [inhibitor, partial curve, poor fit] |
| CCN(c1ccccc1)S(=O)(=O)c1ccc(/C=C\c2onc(C)c2NC(=O)C2CC2)cc1 |  | inconclusive: 4.47 µM [inhibitor, full curve, poor fit] |
| COc1ccccc1CNC(=O)c1cc2c(N3CCSCC3)nc(C)cn2n1 |  | active: 7.08 µM |
| CCc1nnsc1C(=O)N(C)Cc1cccc(Cl)c1Cl | inactive: 17.4% |  |
| COCC(=O)n1nc(NCc2cccc(Cl)c2)nc1NCc1cccc(Cl)c1 |  | inconclusive: 39.8 µM [inhibitor, single point] |
| CCOCc1ccccc1CNC(=O)c1cccs1 | inactive: 16.8% |  |

| SMILES | activity change, negative = inhibition | Potency |
| --- | --- | --- |
| COCc1cc(C)nc(NC2CC(C)(C)NC(C)(C)C2)c1C#N |  | inconclusive: 31.6 µM [inhibitor, partial curve, poor fit] |
| CONC(=O)C(NC(=O)c1ccc(Cl)cc1Cl)C(C)C (centres undefined) | inactive: 37% |  |
| O=c1c2sc3ccccc3c2n(Cc2cccc(Cl)c2)c(=O)n1Cc1ccccc1 |  | inconclusive: 14.1 µM [inhibitor, partial curve, poor fit] |
| C=CCN1C[C@@]2(C(=O)O)CN(c3nccc4ccccc34)C[C@H]2C1=O |  | active: 20 µM |
| CCOc1ccc(OCC)c(NC(=O)c2cnn(-c3ccc(F)cc3)c2-n2cccc2)c1 |  | inconclusive: 35.5 µM [inhibitor, partial curve, poor fit] |
| CN(C)c1ccc(C(=O)NCC2CCN(c3cc(-c4ccc(F)cc4)[nH]n3)CC2)cc1 |  | inconclusive: 28.2 µM [inhibitor, single point] |
| Cc1cccc(N2C(=O)CSC23C(=O)N(C)c2ccccc23)c1 (centres undefined) |  | inconclusive: 4.47 µM [inhibitor, full curve, poor fit] |
| N#Cc1c(N)n[nH]c1CCCNC(=O)c1cn(Cc2ccccc2)nc1-c1ccccc1 | inactive: 10.1% |  |
| COc1ccc(Nc2cnc3ccc(N(C)Cc4cccnc4)nn23)cc1 |  | inconclusive: 44.7 µM [inhibitor, partial curve] |
| N#Cc1cccc(Oc2ccc(C(=O)OCC(=O)c3ccccc3)cc2)c1C#N | inactive: 21.2% |  |
| CCOC(=O)c1[nH]c2ccc(C)cc2c1NC(C)=O |  | inconclusive: 22.4 µM [inhibitor, partial curve, poor fit] |
| COc1ccc(NCc2cc3ccc(OC)cc3n(CC(=O)Nc3ccc(C)c(C)c3)c2=O)cc1 |  | inconclusive: 4.47 µM [inhibitor, full curve, poor fit] |
| O=C(NCc1cccs1)c1nc(-c2ccc(F)cc2)c2cnccn12 |  | active: 39.8 µM |
| O=C(O)CCC(NC(=O)c1ccc(-c2ccc(Cl)cc2)s1)C(=O)O (centres undefined) |  | inconclusive: 31.6 µM [inhibitor, partial curve, poor fit] |
| Cn1ncc(C(=O)NCc2ccccc2)c1-n1cccc1 | inactive: -0.635% |  |
| Cc1ccc(C2C(C(=O)c3cccs3)=C(O)C(=O)N2c2ccc(S(N)(=O)=O)cc2)cc1 (centres undefined) | inactive: -22.2% |  |
| COc1cccc(CN2CCN(Cc3cc(OC)c(O)c(OC)c3)CC2)c1 |  | inconclusive: 10 µM [inhibitor, partial curve, poor fit] |
| CCOc1ccc(-c2cc3c(=O)n(Cc4nc(-c5ccc(OCC)c(OC)c5)oc4C)ccn3n2)cc1Cl | inconclusive: -39.9% [inhibitor] |  |
| O=C1NCCCCCCN(C(=O)CN2CCCCCC2)[C@H]2C[C@H](c3nc(-c4cccnc4)no3)C[C@@H]12 |  | inconclusive: 25.1 µM [inhibitor, single point] |
| CCCCn1cc2c(c1-c1ccc(Br)cc1)c(=O)n(C)c(=O)n2C |  | inconclusive: 10 µM [inhibitor, partial curve, poor fit] and inconclusive: 14.1 µM [inhibitor, partial curve, poor fit] |
| CCC1CN(Cc2cn(Cc3ccccc3)nc2-c2cc3ccccc3o2)CCO1 (centres undefined) |  | inconclusive: 28.2 µM [inhibitor, partial curve, poor fit] |
| CC1=C[C@@H](CNCc2ccccn2)[C@H](C(C)C)C[C@H]1Cc1nnc(-c2ccccc2F)o1 |  | inconclusive: 25.1 µM [inhibitor, single point] |
| CCC(=O)Nc1c(-c2cc(=O)oc3ccc(CC)cc23)oc2ccccc12 | inactive: 12.5% |  |

| SMILES | activity change, negative = inhibition | Potency |
| --- | --- | --- |
| CC(C)C(=O)Nc1ccc2oc(-c3ccc(F)cc3Cl)nc2c1 |  | inconclusive: 10 µM [inhibitor, partial curve, poor fit] |
| COCC1CN(C)CC12CCN(C(=O)COc1cccc(C)c1)CC2 (centres undefined) |  | inconclusive: 11.2 µM [inhibitor, partial curve, poor fit] |
| CC1(C(=O)NC2CCC2)CN(Cc2ccccc2)Cc2ccc(N3CCOCC3)nc21 (centres undefined) |  | active: 35.5 µM |
| O=C(Cc1c[nH]c2ccccc12)NC1(c2ccccc2)CCC1 | inactive: 9.58% |  |
| COc1ccc(Nc2n[nH]c(C(O)c3cccc(C(F)(F)F)c3)n2)cn1 (centres undefined) |  | inconclusive: 35.5 µM [inhibitor, single point] |
| COc1ccc(OC)c(C(=O)c2oc3ccc(NC(=O)C(C)(C)C)cc3c2C)c1 | inactive: -10.2% |  |
| CN(C)c1ncc2c(n1)C(C)(C(=O)NCCCn1ccnc1)CCC2 (centres undefined) |  | active: 35.5 µM |
| Cc1ccccc1NC(=O)c1c(NC(=O)c2ccccc2F)sc2c1CCC(C)C2 (centres undefined) |  | inconclusive: 15.8 µM [inhibitor, partial curve, poor fit] |
| O=C(COc1cccc(F)c1)Nc1cccc2cccnc12 |  | inconclusive: 28.2 µM [inhibitor, partial curve, poor fit] |
| CNc1ccc(Cl)cc1C(N)=O |  | inconclusive: 28.2 µM [inhibitor, partial curve, poor fit] |
| Cc1ccc(Sc2c(C)nn(C(C)(C)C)c2OC(=O)CC(C)C)cc1 |  | inconclusive: 31.6 µM [inhibitor, single point] |
| CCOC(=O)Nc1ccc2c(CN3C(=O)CCC3=O)cc(=O)oc2c1 |  | inconclusive: 25.1 µM [inhibitor, partial curve, poor fit] |
| C=C(C)C[C@H]1CC=C[C@H](CC(=C)C)N1 | inactive: 17.8% |  |
| CN1c2cc(C(=O)Nc3ccc(F)c(F)c3)ccc2C(=O)N2CCCCCC21 (centres undefined) |  | inconclusive: 28.2 µM [inhibitor, partial curve, poor fit] |
| COc1ccc2c(c1)c1c(c(=O)n(-c3cc(Cl)ccc3C)c(=O)n1CC(=O)N1CCCC1)n2C |  | inconclusive: 2.51 µM [inhibitor, partial curve, poor fit] |
| O=C(Nc1ccc2oc(-c3cccnc3)nc2c1)c1ccccc1I |  | inconclusive: 22.4 µM [inhibitor, partial curve, poor fit] |
| O=C(Nc1ccc(OC2CCCC2)cc1)c1ccncc1 |  | inconclusive: 20 µM [inhibitor, single point] |
| Cc1ccc(CNC(=O)CCNS(=O)(=O)c2ccc3c(c2)CCCC(=O)N3)cc1 | inactive: -49.3% |  |
| CC(C)c1noc(-c2ccn3c(CNC(=O)c4ccoc4)nnc3c2)n1 |  | active: 28.2 µM |
| CN1C(=O)[C@@H]2C[C@@H](CN2C(=O)NCc2ccccc2)Oc2ccccc21 | inactive: 5.71% [at 86.2 µM] |  |
| Cc1cc(Oc2ccc(N)cn2)ccc1Cl | inactive: 6.84% |  |
| O=C(c1cccc(-n2cccn2)c1)N1CCOCC(O)(CN2CCCC2)C1 (centres undefined) |  | inconclusive: 1.41 µM [inhibitor, partial curve, poor fit] |
| CC(C)NC(=O)Cn1ccn2nc3c(c2c1=O)CCCC3 | inactive: 22.8% |  |
